About 1,200 (2.5%) of roughly 48,000 compounds were called active. Inconclusive results (about 2%) are left out.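 The calls were made as follows: active = activation of at least 60% and not above a set upper limit (about 1 call in 100 departs from these limits); inconclusive = activation of 40% to 60%, or above that upper limit; inactive = activation under 40%.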 Some of the results follow.
Each compound was assayed against Probable G-protein coupled receptor 32 (Homo sapiens) (UniProt O75388) (assay: qHTS for Agonists of Human Resolvin D1 Receptor DRV1). Details: CHO-K1 GPR32 beta-arrestin PathHunter luminescence, 90 min; at 76.9 µM; active compounds read high; zero percent set by DMSO-only wells.
UniProt O75388, sequence (O75388 whole entry, looked up): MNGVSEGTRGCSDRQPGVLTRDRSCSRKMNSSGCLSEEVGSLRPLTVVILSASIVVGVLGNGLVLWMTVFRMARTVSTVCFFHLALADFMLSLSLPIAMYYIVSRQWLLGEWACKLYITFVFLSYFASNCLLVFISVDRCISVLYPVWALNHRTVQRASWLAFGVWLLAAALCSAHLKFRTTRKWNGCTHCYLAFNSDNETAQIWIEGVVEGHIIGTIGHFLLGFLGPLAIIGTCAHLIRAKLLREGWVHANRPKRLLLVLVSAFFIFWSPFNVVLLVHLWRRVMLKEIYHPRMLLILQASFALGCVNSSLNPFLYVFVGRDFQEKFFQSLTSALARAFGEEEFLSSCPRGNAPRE
Outline: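 Luminescent readout of beta-Gal complementation quantifies ligand-induced beta-arrestin association with GPR32 in CHO-K1 cells; 90 min compound incubation at 37 °C, detection 1 h at room temperature.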
For `COC(=O)c1ccccc1NS(=O)(=O)c1cc2c3c(c1)CC(=O)N3CCC2`, the activation was inactive: -7.93%. `CC(C)(C)c1ccc(C(=O)NCC(c2ccco2)S(=O)(=O)c2ccccc2)cc1` (stereo not drawn) was tested, and the activation was inactive: -5.03%. In the case of `CCN(CC)S(=O)(=O)c1ccc2c(c1)N(CC(=O)Nc1ccc(Cl)cc1)C(=O)C1CCCN21` (stereo not drawn), the activation is reported as inactive: -21.4%. For `CCCCCOc1ccc(NC(=O)Cn2c(-c3nonc3N)nc3ccccc32)cc1`, the activation was inactive: -50.7%. In the case of `COc1ccc(-c2nc3ccccc3n2Cc2ccccc2)cc1`, the activation is reported as inactive: 1.75%. With `Cc1c(Cl)ccc2sc(N3CCN(C(=O)CCS(=O)(=O)c4ccc(F)cc4)CC3)nc12` the activation was inactive: 18.2%. With `COc1cccc(C(=O)Nc2nc(-c3nnn(-c4ccccc4C(F)(F)F)c3C)ns2)c1` the activation was active: 90.8%. With `CCOc1ccc2nc(N(Cc3cccnc3)C(=O)c3cccs3)sc2c1` the activation was inactive: -19.7%. `COc1cccc(-c2nc(Cn3c(=O)cc(C)c4c(C)nn(-c5ccccc5)c43)c(C)o2)c1OC` was tested, and the activation was inactive: -17.3%. In the case of `Cc1ccc2c(c1)C(c1ccccc1)N(C(=O)COc1ccc(Cl)cc1Cl)CC(=O)N2` (stereo not drawn), the activation is reported as inactive: -25.5%. In the case of `Cc1ccc(-n2nc(C)c3c(C(=O)Nc4ccccc4C(F)(F)F)cc(C)nc32)cc1`, the activation is reported as inactive: -25.9%. For `CC1=C(C(=O)Nc2ccccc2)C(c2ccccn2)n2nc(SCc3ccccc3)nc2N1` (stereo not drawn), the activation was inactive: 9.28%. For `CCCCN1C(=O)C(O)(CC(=O)c2ccc(CC)cc2)c2cc(Br)ccc21` (stereo not drawn), the activation was inactive: -13.4%. In the case of `CCCN(C(=O)c1cc2c(=O)oc3ccc(C)cc3c2s1)c1ccc(OCC)cc1`, the activation is reported as inactive: 6.21%. `CCSc1nc(-c2cccc(Cl)c2)nc2c1Cc1c(CO)cnc(C)c1O2` was tested, and the activation was inactive: 11.9%. `COc1cccc(CNC(=O)Cn2nc(C)n3c(cc4cc(C)ccc43)c2=O)c1OC` was tested, and the activation was inactive: -6.94%. With `Cn1c(=O)c2cc(S(=O)(=O)NC(Cc3ccccc3)C(=O)Nc3ccc(F)cc3)ccc2n(C)c1=O` (stereo not drawn) the activation was inactive: -1.4%. For `CC(=O)N1CCCc2cc(S(=O)(=O)N(C)CC(=O)Nc3cccc(Cl)c3C)ccc21`, the activation was inactive: 2.11%. In the case of `CCc1ccc(S(=O)(=O)NCCc2cn3ccsc3n2)cc1`, the activation is reported as inactive: -1.38%. In the case of `CCCCC(=O)N1c2ccccc2C(C)(c2ccccc2)CC1(C)C` (stereo not drawn), the activation is reported as inactive: -13%. For `Cc1cccc(CNC(=O)c2cnc3c(-c4cccc(C)c4)c(C)nn3c2C)c1`, the activation was inactive: -15.8%. In the case of `N[C@H](C(=O)O)[C@H](O)C(=O)O`, the activation is reported as inactive: 4.64%. With `COc1ccc(OC)c(CCNc2ncnc3onc(-c4ccc(Cl)cc4)c23)c1` the activation was inactive: -5.98%.

Reference: PubChem BioAssay AID1346428 (National Center for Advancing Translational Sciences (NCATS), 2018)
Also: 0% is about no effect.
